The campaign covered roughly 150,000 compounds. About 540 (0.36%) showed an effect of 50% or more. Some of the results follow.
Tested on: Plasmodium falciparum
Assay: Primary screen in NF54 nanoGlo assay, in single point, at 2uM, 72h; a lower Z score goes with more inhibition
Format: functional, Erythrocyte
Details: timepoint 72 hour

SMILES | % Inhibition [%] | Z score
C[C@@H](Cc1csc2ccccc12)NC(=O)c1c(F)cccc1Cl | 6 | -0.74
c1ccc(C2(c3ccccc3)O[C@@H](c3cccnc3)Nc3ccccc32)cc1 | -4 | 0.54
O=C(NCc1nnc([C@@H]2CCCO2)[nH]1)c1cccc(Cl)c1 | 2 | -0.36
O=C(NC1CC1)[C@H]1CCCN(C2CCN(c3nc4ccccc4o3)CC2)C1 | 2 | -0.25
CN(Cc1ccccc1)C1CN(C(=O)[C@H]2CCCO2)C1 | 2 | -0.21
CC(NC(=O)C1(C(=O)NC(C)C2CC2)CCC1)C1CC1 (stereo not drawn) | 3 | -0.29
CCN1C[C@@H](NC(=O)COCC(F)(F)C(F)F)CC1=O | -3 | 0.61
COc1ccc(NC(=O)c2sc(NC3CCCCC3)nc2C)cc1OC | -8 | 1.33
Cc1csc(NC(=O)[C@H](C)S(C)(=O)=O)n1 | 4 | -0.72
CC(=O)N[C@H]1C[C@H](c2nnc(COc3ccc4c(c3)OCO4)n2C)C1 | 0 | -0.03
Cc1ccc(OCCN2CC[C@H](CO)[C@@H](O)C2)c(Cl)c1 | -3 | 0.59
Cc1ccc2nc(-c3ccc(F)cc3)c(CN(C)Cc3ccno3)cc2c1 | -11 | 0.97
Cc1ccc(NS(=O)(=O)c2ccc(NC(=O)c3ccsc3)cc2)cc1C | -11 | 0.98
CC(C)C(=O)N1CCCC(C(=O)NC(c2nc(-c3nnc[nH]3)no2)C(C)(C)C)C1 (stereo not drawn) | -7 | 0.71
O=C(N[C@H]1CCO[C@@H]1c1cc[nH]n1)c1cnc2ccsc2c1 | -4 | 0.67
Cc1cc(C)c(C(=O)N2CC(CN3C(=O)CCC3=O)C2)c(C)c1 | -21 | 2.64
Cc1[nH]c(=O)n(Cc2ccccc2)c(=O)c1CC(=O)O | -1 | 0.13
COCCNC(=O)N1CCCC[C@@H]1C | 2 | -0.37
O=C1CCN(Cc2ccc3c(c2)CCO3)CCCCCCN1 | -4 | 0.71
COc1ccc(Br)c([C@H](CO)N(C)C(=O)CC#N)c1 | -4 | 0.73
Cc1nn(-c2ccc(Cl)cc2)cc1C(=O)NC1(C)CCOCC1 | -8 | 1.52
O=C(c1ccc(Cl)c(F)c1)N1CCN2CCC[C@H]2C1 | -2 | 0.42
Cc1c(CC(=O)N2CC(O)C2)c2c(n1Cc1ccccc1F)CCCC2=O | -10 | 1.6
O=C(Nc1ccc(-c2cn3c(n2)CCCC3)cc1)[C@@H]1CC=CCC1 | -11 | 0.96

From ChEMBL document CHEMBL4888484, “Replenishing the malaria drug discovery pipeline: Screening and hit evaluation of the MMV Hit Generation Library 1 (HGL1) against asexual blood stage Plasmodium falciparum ,using a nano luciferase reporter read-out” (2022)
